Experimental data: the BET-seq Pho4 binding data (Le et al. 2018)
The list shows a part of the results. Values were computed here from the reads of four pooled replicates and scatter widely.

Target: T1, Pho4 (S. cerevisiae) (UniProt P07270)
T1 sequence: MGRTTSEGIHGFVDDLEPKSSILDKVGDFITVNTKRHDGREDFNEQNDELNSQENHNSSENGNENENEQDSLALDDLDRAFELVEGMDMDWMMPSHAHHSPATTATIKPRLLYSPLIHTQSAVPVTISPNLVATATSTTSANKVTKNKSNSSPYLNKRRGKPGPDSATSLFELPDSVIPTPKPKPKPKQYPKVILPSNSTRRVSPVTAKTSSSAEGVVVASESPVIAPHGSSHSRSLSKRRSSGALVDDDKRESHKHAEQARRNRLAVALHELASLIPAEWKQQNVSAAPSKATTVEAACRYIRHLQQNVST
Assay: relative binding free energy (BET-seq); higher = weaker binding
Settings: reference: library average

| Sequence | relative binding free energy [kcal/mol] |
| --- | --- |
| TTGAGCACGTGTTACG | -0.12 |
| TTGAGCACGTGGCATA | -0.2 |
| GTCTTCACGTGATAGG | 0.52 |
| CTGTTCACGTGGAATT | 0.35 |
| TTTGGCACGTGTGCCG | -0.04 |
| CGTTGCACGTGTGGTT | 0.07 |
| AATTACACGTGGGTGG | 0.04 |
| AGGGCCACGTGTAAAT | 0.15 |
| TAGTCCACGTGGTAAG | -0.03 |
| AGCTTCACGTGGTGGT | 0.18 |
| TTGGACACGTGAGTAG | 0.22 |
| TTATACACGTGTGTTG | 0.05 |
| TATGTCACGTGTGCTA | 0.01 |
| GTTTTCACGTGTACGA | 0.31 |
| AGGTTCACGTGTATGA | 0.36 |
| TAAGACACGTGTGGGG | 0.02 |
| TGATGCACGTGTTTTT | 0.08 |
| ATGTACACGTGGCGGT | 0.04 |
| GTAGTCACGTGAGATA | 0.31 |
| AGCTTCACGTGTGGTA | 0.3 |
| TTCTTCACGTGGGTCG | 0.14 |
| ATTATCACGTGAGGTC | 0.24 |
| GTAAGCACGTGAAGAG | 0.31 |

| Sequence | relative binding free energy [kcal/mol] |
| --- | --- |
| TGCATCACGTGGGTAA | 0 |
| CTGGGCACGTGGGGTA | -0.17 |
| AGTGACACGTGGTTGG | -0.18 |
| TGTGCCACGTGTGATT | -0.01 |
| TGGTGCACGTGATCTA | 0.09 |
| TGGAACACGTGGGGCG | -0.07 |
| TGAAGCACGTGGAAAG | 0.12 |
| TGCTTCACGTGGGTAA | 0 |
| AGGTCCACGTGAGTGG | 0.16 |
| GAAACCACGTGGGGTG | -0.15 |
| TGAGTCACGTGAGTTC | 0.35 |
| CTCGTCACGTGGTGTG | -0.1 |
| TCCGGCACGTGGTTGG | -0.16 |
| TTGCTCACGTGAAGGG | 0.48 |
| TGATGCACGTGTAAGA | 0.09 |
| GTTCGCACGTGTAGCG | 0.04 |
| GTCGTCACGTGTGTGG | 0.18 |
| CCGGTCACGTGTCGGT | 0.16 |
| CATGGCACGTGATTGT | -0.13 |
| AGTAACACGTGTATGA | 0 |
| TGGTGCACGTGGGGCT | -0.1 |
| AGTAGCACGTGGTAGG | -0.12 |
| GTGTTCACGTGGTGTC | 0.3 |

| Sequence | relative binding free energy [kcal/mol] |
| --- | --- |
| ATTGACACGTGTGGCT | 0 |
| AAGGTCACGTGGATGG | 0.08 |
| AGGACCACGTGTGTTT | 0.06 |
| AGGAGCACGTGTTTAG | -0.2 |
| CAGTACACGTGGTGTT | 0.07 |
| GGATTCACGTGGCTTG | 0.21 |
| AAGGTCACGTGATTTC | 0.29 |
| TGTTTCACGTGCAAAG | 0.26 |
| TGTTTCACGTGGGGAT | 0.23 |
| ATGTCCACGTGGATGT | 0.02 |
| TGTCGCACGTGGGGGG | -0.14 |
| AAGTACACGTGAGTGG | 0.3 |
| ACTTTCACGTGTGTAG | 0.19 |
| TACGGCACGTGTTGAG | 0.05 |
| ACAGTCACGTGAGTGG | 0.23 |
| TCTATCACGTGTAAGT | 0.17 |
| GGACTCACGTGGTGGT | 0.19 |
| ATTTCCACGTGTAAGG | 0.18 |
| TATTTCACGTGATTTC | 0.33 |
| CGTGACACGTGGTGGG | -0.06 |
| AAGGACACGTGTTATG | 0.11 |
| AGGATCACGTGAAGTG | 0.36 |
| TCTGTCACGTGGGGAG | -0.07 |

| Sequence | relative binding free energy [kcal/mol] |
| --- | --- |
| TATTTCACGTGCAGGG | 0.23 |
| AGGGCCACGTGGGTCT | -0.2 |
| GTGTGCACGTGGTCGC | -0.23 |
| TAGGACACGTGTGCGT | 0 |
| TATGCCACGTGTTTGA | -0.08 |
| GAAGTCACGTGGTGGT | 0.21 |
| ATTTTCACGTGTGCAA | 0.23 |
| ATAAGCACGTGGGTGC | -0.29 |
| TCCTGCACGTGGGAGG | -0.13 |
| GGGGTCACGTGAGGGG | 0.4 |
| CGATGCACGTGTATTT | 0.05 |
| TCAGGCACGTGATAGG | -0.08 |
| TCGGTCACGTGCTGGG | 0 |
| AGTAACACGTGCGTTG | -0.15 |
| TGGAGCACGTGTGGCA | -0.12 |
| GTAGTCACGTGACTGT | 0.18 |
| AGACGCACGTGGTGGT | -0.21 |
| CATTACACGTGTGTGG | 0.03 |
| TACTGCACGTGATTTT | 0.15 |
| TTAGTCACGTGTTGTG | 0.15 |
| TGCCTCACGTGCGTGG | 0.16 |
| AATGTCACGTGGAGGC | 0.03 |
| GGCATCACGTGTTATT | 0.19 |

| Sequence | relative binding free energy [kcal/mol] |
| --- | --- |
| TATTTCACGTGTTATG | 0.18 |
| ATGTTCACGTGAAGGC | 0.47 |
| GGTACCACGTGTTTGA | 0.11 |
| CTGATCACGTGTGTGA | 0.09 |
| ATGTGCACGTGCCTGG | -0.15 |
| CGAGTCACGTGGGTAA | -0.03 |
| TATGACACGTGTGTTG | -0.03 |
| TGATGCACGTGGGGCG | -0.19 |
| TTGATCACGTGCCGGT | 0.13 |
| TTGATCACGTGAGGTG | 0.31 |
| CTTTGCACGTGTCTGT | -0.12 |
| GTGATCACGTGATGGG | 0.33 |
| GATAACACGTGTGTTT | -0.07 |
| AATATCACGTGTTCTT | 0.1 |
| CGTTACACGTGGTATT | -0.03 |
| TAGTTCACGTGGGGGG | 0.22 |
| ACTTGCACGTGTTCGT | 0.09 |
| TATTACACGTGCGGTG | -0.06 |
| ATGAGCACGTGAGATG | 0.17 |
| AGTTTCACGTGGCCGT | 0.25 |
| TGAGGCACGTGATGTG | -0.01 |
| AGGGACACGTGCTGTA | -0.13 |
| AGTTTCACGTGTGTAA | 0.33 |
